# The whole screen tested about 44,000 compounds, of which about 340 (0.77%) were called active. Another 5% or so got no clear call; they are omitted. Calls follow the shape of the dose curve; as a rule, active = well fitted inhibition curve with a large enough effect; inconclusive = small, poorly fitted or top-dose-only effect; inactive = flat fitted curve, though single readings scatter. The list shows a part of the results.
# Assay: Acumen qHTS Assay for Inhibitors of the mTORC1 Signaling Pathway in MEF (Tsc2-/-, p53-/-) Cells: Sytravon;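 also: plate controls were DMSO for no effect and rapamycin for full effect; nearly all actives have a fitted effect of over 50% in size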
# Settings: phospho-rpS6 immunofluorescence/PI, 24 h; series mostly up to 38.3 µM; activity change, negative = inhibition: at the top concentration
# Outline: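 Compounds act on Tsc2-/-, p53-/- fibroblasts carrying an empty vector for 24 h before fixation and dual staining for phospho-S6 and DNA (propidium iodide). Values are percentages of cells above a rapamycin-defined pS6/PI threshold.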
row,Structure (SMILES),"activity change, negative = inhibition"
1,CCOc1cccc(C2c3[nH]c4ccccc4c3CCN2C(=O)CSCc2ccc(F)cc2)c1 (stereo unspecified),inactive: -13.5%
2,COc1ccc(OC)c(NC(=O)CSc2ncc3c(n2)-c2ccccc2N(C)S3(=O)=O)c1,inactive: 0.311%
3,O=C(C1COc2ccccc2O1)N(Cc1cccnc1)c1nc2c(Cl)cccc2s1 (stereo unspecified),inactive: -1.68%
4,NC(=O)Cn1c(=O)n(CCCCCC(=O)NCc2ccc(F)cc2)c(=O)c2sccc21,inactive: -16.1%
5,CCCNC(=O)c1ccc(-c2nc(CS(=O)(=O)c3ccc(C)cc3)c(C)o2)cc1,inactive: -0.807%
6,CCCCS(=O)(=O)CC(O)CSc1nc(-c2ccc(C)cc2)cc(-c2ccccc2)c1C#N (stereo unspecified),inactive: 8.57%
7,COc1cccc(C(=O)Nc2cccc(-c3cn4ccsc4n3)c2)c1OC,inactive: 0.352%
8,CCOC(=O)/C(C#N)=C/c1ccc(-c2ccc(Br)cc2)o1,inactive: -3.84%
9,Cc1ccccc1-c1noc(-c2cccnc2N2CCN(c3ccccc3)CC2)n1,inactive: 1.76%
10,CCOC(=O)c1ccc(NC(=O)CCn2c(=O)c3cccn3c3cccnc32)cc1,inactive: -3.73%
11,O=C(Nc1ccc(F)cc1F)c1cc(-c2ccc(Cl)cc2)on1,inactive: 3.42%
12,CCc1cccc(NS(=O)(=O)c2ccc(-n3cccn3)cc2)c1,inactive: -0.105%
13,CCN(CC)C(=O)Cn1c(=O)n(-c2ccc(C)c(C)c2)c(=O)c2c3c(sc21)CCCCC3,inactive: 4.1%
14,COc1ccc(NC(=O)c2ccc3c(SCC(=O)O)c4c(nc3c2)CCCC4)c(OC)c1,inactive: 1.45%
15,O=C(NCCCN1CCN(c2ccc(F)cc2)CC1)c1cnn(-c2ccc(F)cc2)c1-n1cccc1,inactive: -13.8%
16,Cc1cccc(-c2nc3c4ccccc4n(Cc4cccc(Cl)c4)c(=O)n3n2)c1,inactive: -8.41%
17,O=C(CN1C(=O)COc2ccc(S(=O)(=O)N3CCOCC3)cc21)N1CCN(c2cccc(Cl)c2)CC1,inactive: -8.07%
18,C#CCSc1nc(-c2ccccc2)cc(-c2ccccc2)c1C#N,inactive: -17.1%
19,Cc1ccc(-n2c3c(cc(-c4nc(-c5ccc(Cl)cc5)cs4)c2=O)C(=O)CC(C)(C)C3)cc1C,inactive: -3.41%
20,O=S(=O)(c1ccc(-c2cc(C(F)(F)F)on2)s1)N1CCN(c2ccc(F)cc2)CC1,inactive: -4.73%
21,Cc1cc(Br)ccc1NC(=O)Cn1cc(S(=O)(=O)N2CCN(c3ccccc3F)CC2)c2ccccc2c1=O,inactive: 12.6%
22,COc1ccc(NC(=O)C2CCCN(c3ncnc4c3nc3n4CCCCC3)C2)c(OC)c1 (stereo unspecified),inactive: -15%
23,COc1cc(NS(=O)(=O)c2cc3c(cc2C)N(C)CCO3)cc(OC)c1OC,inactive: -11.9%

row,Structure (SMILES),"activity change, negative = inhibition"
1,Cc1ccc(C)c(N2CCN(C(=O)CCc3nnc4n(CC(C)C)c(=O)c5ccccc5n34)CC2)c1,inactive: -13.3%
2,Cc1ccc(CN2CCc3nc(Nc4ccc5c(c4)OCCO5)ncc3C2)cc1,inactive: 9.81%
3,CCOc1ccc(CNC(=O)c2cnc3sc(N4CCOCC4)nn3c2=O)cc1,inactive: -7.96%
4,CCS(=O)(=O)N1CCc2cc(C(=O)Nc3ccc(C(=O)OC)cc3)ccc21,inactive: 2.14%
5,CCn1cc(C(=O)N2CCN(c3cccc(Cl)c3)CC2)c2cc(OC)c(OC)cc2c1=O,inactive: -4.19%
6,CC1=C(c2ccc(C(C)C)cc2)S(=O)(=O)NC1=NCCCN1CCN(c2ccccc2F)CC1,inactive: -3.66%
7,CCSc1oc(-c2ccco2)nc1S(=O)(=O)c1ccc(Br)cc1,inactive: -1.46%
8,CC(=O)c1ccc(Nc2nc3c(S(=O)(=O)c4ccccc4)nnn3c3ccc(Cl)cc23)cc1,inactive: -11.7%
9,CCN1c2ccccc2-c2nc(SCC(=O)NCc3ccccc3)ncc2S1(=O)=O,inactive: -11.4%
10,COC(=O)CCNC(=O)NC(CCC(C)C)c1c(-n2cccc2)sc2c1CCN(C)C2 (stereo unspecified),inactive: 4.03%
11,CCC(=O)N1CCc2cc(S(=O)(=O)NCCC(=O)Nc3cc(C)ccc3OC)ccc21,inactive: 0.969%
12,Cc1ccc2nc(-c3ccc(O)cc3)c(Nc3ccc(Cl)cc3)n2c1,inactive: -2.16%
13,COc1ccccc1NC(=O)Cn1c(=O)n(CCC(=O)NCC2CCCO2)c(=O)c2cc(OC)c(OC)cc21 (stereo unspecified),inactive: 0%
14,COc1ccccc1-c1cc2nc(C)c(CCC(=O)O)c(C)n2n1,inactive: -1.99%
15,CCCc1cc(=O)[nH]c(SCC(=O)N2CCN(c3ccccc3OC)CC2)n1,inactive: -0.173%
16,COc1cc(NC(=O)c2cc3c(s2)-c2ccccc2OC3)cc(OC)c1OC,inactive: -6.76%
17,CCCN(CCC)C(=O)Cn1c(=O)n(-c2ccc(Cl)cc2)c(=O)c2c3c(sc21)CCCCC3,inactive: 2.89%
18,Cc1ccc(-c2nn(-c3ccc(F)cc3)c3c2cnc2cc(F)c(F)cc23)cc1,inactive: 3.7%
19,Cc1nn(-c2ccc(N3CCCCC3)nn2)c(C)c1CCC(=O)NCc1ccc(OC(C)C)cc1,inactive: 1.23%
20,Cc1ccccc1C(=O)Nc1ccc(OCc2cc(=O)n3ccccc3n2)cc1,inactive: -13.9%
21,Cc1ccc(NC(=O)Cn2cc(S(=O)(=O)N3CCCC3)c(S(=O)(=O)N3CCCC3)c2)cc1F,inactive: -0.478%
22,Cc1ccc(C)c(S(=O)(=O)c2nnn3c2nc(Nc2ccc(C)c(C)c2)c2ccccc23)c1,inactive: -4.66%
23,Cc1ccc(CCNC(=O)c2c[nH]c3ccc(S(=O)(=O)Nc4ccc(C)cc4C)cc3c2=O)cc1,inactive: -14.7%
